Assay results from the supplement of paper PMC8728848.
The other results are listed elsewhere or left out.

Experiments:
Test in all cases: glycan array binding signal (z-score within array); higher = stronger binding
Conditions in all cases: glycan notation: IUPAC condensed, linker removed; mutation: N224Q
[1] = molecular target: Gal(a1-6)Glc
Summary of the method: (§1)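 Arrays were curated from the Consortium for Functional Glycomics database, 3228 in total, and kept only where the protein sequence was available. Binding is expressed as a within-array Z-score. This score was averaged across arrays of the same protein sequence at different concentrations or buffers and across linkers, and negative values can be read as non-binding.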

[2] = molecular target: Gal(b1-2)Gal
Summary of the method: as §1

[3] = molecular target: Gal(b1-3)Gal
Summary of the method: as §1

[4] = molecular target: Gal(b1-3)Gal(b1-4)GlcNAc
Summary of the method: as §1

[5] = molecular target: Gal(b1-3)GalNAc
Summary of the method: as §1

[6] = molecular target: Gal(b1-3)GalNAc(a1-3)[Fuc(a1-2)]Gal(b1-4)Glc
Summary of the method: as §1

[7] = molecular target: Gal(b1-3)GalNAc(a1-3)[Fuc(a1-2)]Gal(b1-4)GlcNAc
Summary of the method: as §1

[8] = molecular target: Gal(b1-3)GalNAc(b1-3)Gal
Summary of the method: as §1

[9] = molecular target: Gal(b1-3)GalNAc(b1-3)Gal(a1-4)Gal(b1-4)Glc
Summary of the method: as §1

[10] = molecular target: Gal(b1-3)GalNAc(b1-4)Gal(b1-4)Glc
Summary of the method: as §1

[11] = molecular target: Gal(b1-3)GalNAc(b1-4)[Neu5Ac(a2-3)]Gal(b1-4)Glc
Summary of the method: as §1

[12] = molecular target: Gal(b1-3)GlcNAc
Summary of the method: as §1

[13] = molecular target: Gal(b1-3)GlcNAc(a1-3)Gal(b1-4)GlcNAc
Summary of the method: as §1

[14] = molecular target: Gal(b1-3)GlcNAc(a1-6)Gal(b1-4)GlcNAc
Summary of the method: as §1

[15] = molecular target: Gal(b1-3)GlcNAc(b1-2)Man
Summary of the method: as §1

[16] = molecular target: Gal(b1-3)GlcNAc(b1-2)Man(a1-3)[Gal(b1-3)GlcNAc(b1-2)Man(a1-6)]Man(b1-4)GlcNAc(b1-4)GlcNAc
Summary of the method: as §1

[17] = molecular target: Gal(b1-3)GlcNAc(b1-2)Man(a1-3)[Gal(b1-3)GlcNAc(b1-2)Man(a1-6)]Man(b1-4)GlcNAc(b1-4)[Fuc(a1-6)]GlcNAc
Summary of the method: as §1

[18] = molecular target: Gal(b1-3)GlcNAc(b1-2)Man(a1-3)[GlcNAc(b1-4)][Gal(b1-3)GlcNAc(b1-2)Man(a1-6)]Man(b1-4)GlcNAc(b1-4)GlcNAc
Summary of the method: as §1

[19] = molecular target: Gal(b1-3)GlcNAc(b1-2)[Gal(b1-3)GlcNAc(b1-6)]Man(a1-6)[Gal(b1-3)GlcNAc(b1-2)Man(a1-3)]Man(b1-4)GlcNAc(b1-4)GlcNAc
Summary of the method: as §1

[20] = molecular target: Gal(b1-3)GlcNAc(b1-3)Gal(b1-3)GlcNAc
Summary of the method: as §1

[21] = molecular target: Gal(b1-3)GlcNAc(b1-3)Gal(b1-4)Glc
Summary of the method: as §1

[22] = molecular target: Gal(b1-3)GlcNAc(b1-3)Gal(b1-4)GlcNAc
Summary of the method: as §1

[23] = molecular target: Gal(b1-3)GlcNAc(b1-3)Gal(b1-4)GlcNAc(b1-2)Man(a1-3)[Gal(b1-3)GlcNAc(b1-3)Gal(b1-4)GlcNAc(b1-2)Man(a1-6)]Man(b1-4)GlcNAc(b1-4)GlcNAc
Summary of the method: as §1

[24] = molecular target: Gal(b1-3)GlcNAc(b1-3)Gal(b1-4)GlcNAc(b1-2)[Gal(b1-3)GlcNAc(b1-3)Gal(b1-4)GlcNAc(b1-6)]Man(a1-6)[Gal(b1-3)GlcNAc(b1-3)Gal(b1-4)GlcNAc(b1-2)Man(a1-3)]Man(b1-4)GlcNAc(b1-4)[Fuc(a1-6)]GlcNAc
Summary of the method: as §1

[25] = molecular target: Gal(b1-3)GlcNAc(b1-3)Gal(b1-4)GlcNAc(b1-3)Gal(b1-4)GlcNAc(b1-2)[Gal(b1-3)GlcNAc(b1-3)Gal(b1-4)GlcNAc(b1-3)Gal(b1-4)GlcNAc(b1-6)]Man(a1-6)[Gal(b1-3)GlcNAc(b1-3)Gal(b1-4)GlcNAc(b1-3)Gal(b1-4)GlcNAc(b1-2)Man(a1-3)]Man(b1-4)GlcNAc(b1-4)[Fuc(a1-6)]GlcNAc
Summary of the method: as §1

[26] = molecular target: Gal(b1-3)GlcNAc(b1-3)Gal(b1-4)GlcNAc(b1-6)[Gal(b1-3)GlcNAc(b1-3)]Gal(b1-4)Glc
Summary of the method: as §1

[27] = molecular target: Gal(b1-3)GlcNAc(b1-3)Gal(b1-4)[Fuc(a1-3)]GlcNAc
Summary of the method: as §1

[28] = molecular target: Gal(b1-3)GlcNAc(b1-3)Gal(b1-4)[Fuc(a1-3)]GlcNAc(b1-6)[Gal(b1-3)GlcNAc(b1-3)]Gal(b1-4)Glc
Summary of the method: as §1

[29] = molecular target: Gal(b1-3)GlcNAc(b1-3)GalNAc
Summary of the method: as §1

[30] = molecular target: Gal(b1-3)GlcNAc(b1-6)Gal(b1-4)GlcNAc
Summary of the method: as §1

[31] = molecular target: Gal(b1-3)GlcNAc(b1-6)GalNAc
Summary of the method: as §1

[32] = molecular target: Gal(b1-3)GlcNAc(b1-6)[Gal(b1-3)]GalNAc
Summary of the method: as §1

[33] = molecular target: Gal(b1-3)GlcNAc6S
Summary of the method: as §1

[34] = molecular target: Gal(b1-3)[Fuc(a1-4)]GlcNAc
Summary of the method: as §1

[35] = molecular target: Gal(b1-3)[Fuc(a1-4)]GlcNAc(b1-2)Man
Summary of the method: as §1

[36] = molecular target: Gal(b1-3)[Fuc(a1-4)]GlcNAc(b1-2)Man(a1-3)[Gal(b1-3)[Fuc(a1-4)]GlcNAc(b1-2)Man(a1-6)]Man(b1-4)GlcNAc(b1-4)[Fuc(a1-6)]GlcNAc
Summary of the method: as §1

[37] = molecular target: Gal(b1-3)[Fuc(a1-4)]GlcNAc(b1-3)Gal(b1-3)[Fuc(a1-4)]GlcNAc
Summary of the method: as §1

B1: AAL (Aleuria aurantia) (protein)
chain: MPTEFLYTSKIAAISWAATGGRQQRVYFQDLNGKIREAQRGGDNPWTGGSSQNVIGEAKLFSPLAAVTWKSAQGIQIRVYCVNKDNILSEFVYDGSKWITGQLGSVGVKVGSNSKLAALQWGGSESAPPNIRVYYQKSNGSGSSIHEYVWSGKWTAGASFGSTVPGTGIGATAIGPGRLRIYYQATDNKIREHCWDSNSWYVGGFSASASAGVSIAAISWGSTPQIRVYWQKGREELYEAAYGGSWNTPGQIKDASRPTPSLPDTFIAANSSGNIDISVFFQASGVSLQQWQWISGKGWSIGAVVPTGTPAGW
glycan array binding signal (z-score) [1]: -0.31
glycan array binding signal (z-score) [2]: -0.302
glycan array binding signal (z-score) [3]: -0.301
glycan array binding signal (z-score) [4]: -0.317
glycan array binding signal (z-score) [5]: -0.313
glycan array binding signal (z-score) [6]: -0.303
glycan array binding signal (z-score) [7]: -0.317
glycan array binding signal (z-score) [8]: -0.297
glycan array binding signal (z-score) [9]: -0.313
glycan array binding signal (z-score) [10]: -0.314
glycan array binding signal (z-score) [11]: -0.317
glycan array binding signal (z-score) [12]: -0.326
glycan array binding signal (z-score) [13]: -0.303
glycan array binding signal (z-score) [14]: -0.324
glycan array binding signal (z-score) [15]: -0.281
glycan array binding signal (z-score) [16]: -0.301
glycan array binding signal (z-score) [17]: -0.178
glycan array binding signal (z-score) [18]: -0.26
glycan array binding signal (z-score) [19]: -0.296
glycan array binding signal (z-score) [20]: -0.313
glycan array binding signal (z-score) [21]: -0.273
glycan array binding signal (z-score) [22]: -0.309
glycan array binding signal (z-score) [23]: -0.297
glycan array binding signal (z-score) [24]: -0.181
glycan array binding signal (z-score) [25]: -0.072
glycan array binding signal (z-score) [26]: -0.295
glycan array binding signal (z-score) [27]: 0.207
glycan array binding signal (z-score) [28]: -0.308
glycan array binding signal (z-score) [29]: -0.313
glycan array binding signal (z-score) [30]: -0.317
glycan array binding signal (z-score) [31]: -0.303
glycan array binding signal (z-score) [32]: -0.313
glycan array binding signal (z-score) [33]: -0.309
glycan array binding signal (z-score) [34]: 0.751
glycan array binding signal (z-score) [35]: -0.154
glycan array binding signal (z-score) [36]: -0.261
glycan array binding signal (z-score) [37]: 0.798
